The test system of the assay is NCI-H322M lung. The experiment in a line: DTP human tumour cell line panel, 48 h.

Several values for one entry are separate records, joined by “and”; a condition that tells them apart may be missing. Equal entries are not always repeated.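 Values below derive from 48-hour exposures of cells grown in 96-well plates, with endpoints linearly interpolated between the two concentrations bracketing the appropriate inhibition level. GI50 = concentration required for 50% inhibition of growth. TGI marks complete inhibition of growth.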 Numbered stars: 1 amine (or outer) side, 2 acyl side, 3 side chain; on linkers, the order of the positions; unused ones are H or OH. Bridge positions count the residues as written; N and C are the ends. Square brackets hold non-standard residues; d marks the D form. Peptide text beside a SMILES is read from it. I, II: the chains in the order shown. Actinocin(1to9) = Cc1c2oc3c(C)ccc(C(=O)[*:2])c3nc-2c(C(=O)[*:1])c(N)c1=O; NMeY = CN[CH](Cc1ccc(O)cc1)C(=O)O; Sar = CNCC(=O)O

For `CNC(=S)N1CCN(C(C)=O)C1=S`, the TGI was over 100 µM.
On to `NC(=O)C1CCN(Cc2c(Cl)c(Cl)c(CN3CCC(C(N)=O)CC3)c(Cl)c2Cl)CC1`, for which the TGI is over 100 µM.
For the compound `CCN(CC)CCCCNc1c2ccc(Cl)cc2nc2ccc(OC)cc12`, the GI50 is 0.575 µM and the TGI was 3.24 µM.
`c1ccc(OC2=NC3=S(S2)SC(Oc2ccccc2)=N3)cc1` displayed a TGI of 37 µM.
For the compound `CCCCNC(=O)Cn1c2ccc(Br)cc2c2nc3ccccc3nc21`, the TGI is over 100 µM.
Still for that read-out and setting: as for `CC(C)(C)c1ccnc(N=C2N=C(Nc3cc(C(C)(C)C)ccn3)c3ccccc32)c1`, the figure is 47.9 µM.
For `CC/C(=C/c1ccc(OC)cc1OC)[N+](=O)[O-]`, the GI50 is 13.4 µM and the TGI was determined as 27.5 µM.
Consider `COc1ccc(CC2C(=O)OC(C)C(NC(=O)c3c4nc5c(C(=O)NC6C(=O)NC(C(C)C)C(=O)N7CCCC7C(=O)N(C)CC(=O)N(C)C(Cc7ccc(OC)cc7)C(=O)OC6C)ccc(C)c5oc-4c(C)c(=O)c3N)C(=O)NC(C(C)C)C(=O)N3CCCC3C(=O)N(C)CC(=O)N2C)cc1` (stereo not given) (I: TVP[Sar][NMeY](Me) / II: TVP[Sar][NMeY](Me); ester I:1-I:C, II:1-II:C; linker I:N-II:N via Actinocin(1to9); configuration not given here), for which the 50% growth inhibitory concentration (GI50) is < 0.01 µM and 0.0288 µM.
As to `CCC[CH2][Sn]1([CH2]CCC)[S]CC[N]1S(=O)(=O)c1ccc(C)cc1`, the GI50 was 1.71 µM and the TGI is 3.08 µM.
On the same counts, the results for `Cc1cccc2c1[nH]c(=O)c1c3ccccc3cn21` are 13.6 µM and 45.3 µM.
On to `C=C1C[C@@H]2C[C@@H](C)CC(O)[C@]2(CCCN)C1O` (stereo not given in full), for which the TGI is over 100 µM.
The same measure, in the same setting: as for `NCCCCNCCCN1CCOC1=O`, the figure is over 100 µM.
Still for that read-out and setting: for `COc1cc(/C=N/N=C(\N)NO)c([N+](=O)[O-])cc1OC` the value was over 100 µM.
In the case of `CC(C)(C)OC(=O)Nc1ccc2c(c1)C(NC(=O)Nc1cccc(C#N)c1)CC(C)(C)O2` (stereo not given), the GI50 is 24.3 µM and the TGI is over 100 µM.
With `Nc1c(N2CCOCC2)c(=O)nc2[nH]/c(=C\c3ccccc3O)c(=O)n12`, the TGI is over 100 µM.
On the same count and under the same terms, for `COc1cc2c(c(OC)c1)[C@H](C)N(Cc1ccccc1)C(C)C2` (stereo not given in full) the value was over 100 µM.
`CC(C)=CCC[C@@H](C)C1=C(Nc2ccccc2F)C(O)=C(C)C(=O)C1=O` gave a TGI of over 100 µM.
As to `O=C(Nc1cccc(C(F)(F)F)c1)Oc1ccc(Cl)c2cccnc12`, the GI50 is 2.72 µM and the TGI turned out to be 10.4 µM.
`O=C1C=CC(=O)c2c(O)c(N3CCC[C@@H]3CO)c(Cl)c(O)c21` had a TGI of 2.28 µM. This lies in the single-digit micromolar range.
Still for that read-out and setting: for `C[As+](C)(c1ccc(Br)c([N+](=O)[O-])c1)c1ccc(Br)c([N+](=O)[O-])c1.O=[N+]([O-])O` the value was over 100 µM; for `CCOC(=O)CN1C(=O)c2cc([N+](=O)[O-])cc3cc([N+](=O)[O-])cc(c23)C1=O`, over 100 µM.
Regarding `CCn1c2ccccc2c2cc(C(=O)c3ccc(C)c4ccccc34)ccc21`, the GI50 was 0.529 µM and the TGI was over 100 µM.
In turn, `N#C/C(C(=O)NCc1ccccc1)=C(/N)N1CCCC1` came in with a TGI of over 100 µM.
Same read-out and setting: for `O=c1/c(=N\Nc2ccccc2)c2cccc3ccc4cccc1c4c32` the value was over 100 µM.
`COc1cc2c3c(n(CCCNCCCN)c(=O)c2cc1OC)-c1cc2c(cc1C3=O)OCO2`: the GI50 is 2.45 µM and the TGI came out at 12.8 µM.
Regarding `CCOC(=O)/C=C/c1cccc(F)c1`, the TGI was over 100 µM.
Same read-out and setting: as for `c1ccc2c(c1)cc1ccc3cccc4ccc2c1c34`, the figure is 53.4 µM; as for `CCCn1cc2c3c(cccc31)C1C=C(C)CN(C)C1C2` (stereo not given), 57 µM; as for `CC/C=N\N1C(N)=C(C#N)C(C#N)(C#N)C1CC` (stereo not given), over 100 µM.
Same read-out and setting: for `CC(=O)NN1C(=O)C(Cc2ccccc2)c2ccccc21` (stereo not given) the value was over 100 µM.
With `COc1ccc(S(=O)(=O)N(C(C)=O)c2ccccc2/C=C/c2cc[n+]([O-])cc2)cc1`, the GI50 is 1.14 µM and the TGI is over 10 µM.
On the same counts, the results for `CCCCn1c(=O)c(/C=C/C(=O)/C=C/c2cc3ccccc3n(CCCC)c2=O)cc2ccccc21` are 1.64 µM and 3.32 µM.
In turn, `O=C1Nc2cc(F)ccc2C1=O` gave a TGI of over 100 µM.
Still for that read-out and setting: as for `Cc1cc(-c2cc(C(C)(C)C)c(O)c(C(C)(C)C)c2)c(C)cc1-c1cc(C(C)(C)C)c(O)c(C(C)(C)C)c1`, the figure is over 100 µM.
Still for that read-out and setting: for `COc1cc(C(=O)c2cocc2C(=O)c2ccc3c(c2)OCO3)cc(OC)c1OC` the value was over 58.9 µM.
On the same count and under the same terms, for `Oc1ccccc1/C=N/N1C(=S)N(C23CC4CC(CC(C4)C2)C3)C(=Nc2ccccc2)C1=Nc1ccccc1` the value was over 100 µM.
On to `COc1cc(/C=C2\CCCC3=C2N=C2SC(C)=NN2C3c2cc(OC)c(OC)c(OC)c2)cc(OC)c1OC` (stereo not given), for which the GI50 was over 100 µM and the concentration for total growth inhibition (TGI) was over 100 µM.
In the case of `COc1ccc2c(c1)CCc1c-2n[nH]c1-c1[nH]nc2c1CCc1cc(OC)ccc1-2`, the TGI is over 100 µM.
Same read-out and setting: for `O/N=C/c1ccc(O)c(O)c1` the value was over 100 µM; for `COC(C)C(O)(C(=O)OCC1=CCN2CCC(O)C12)C(C)(C)O` (stereo not given), over 100 µM.
On the same count and under the same terms, for `Nc1ccc(/C=C/c2ccc3cccnc3c2)cc1` the value was over 100 µM.
`COC(=O)N[C@H]1CCc2c(Cl)c(OC)c(OC)c(OC)c2-c2ccc(SC)c(=O)cc21`: the GI50 was under 0.01 µM and the TGI is over 100 µM.
`CSc1nc(Cl)c2c(n1)Sc1nc3ccccc3n1C2O` (stereo not given) showed a TGI of 65.8 µM.
`C=C1CCC2C3(C)COC(c4ccccc4Cl)OC3CCC2(C)C1/C=C/C1=CCOC1=O` (stereo not given): the GI50 was over 100 µM and the TGI was over 100 µM.
With `O=c1[nH]c(=O)n(C2CC(O)C(CO)O2)cc1C(F)(F)F` (stereo not given), the GI50 is over 100 µM and the TGI was over 100 µM.
The compound `CCOC(=O)c1c(SCc2cc(=O)[nH]c(=O)[nH]2)n(-c2ccccc2)c(=S)n(-c2ccccc2)c1=O` registered a concentration for total growth inhibition (TGI) of over 100 µM.
Still for that read-out and setting: as for `CS(=O)(=O)Nc1ccc2ccccc2c1`, the figure is over 100 µM.
For the compound `O=C(/C=C/C12c3ccccc3C(c3ccccc31)C1C(=O)NC(=O)C12)c1ccccc1` (stereo not given), the GI50 is 1.64 µM and the TGI amounted to 3.35 µM.
`CNC(=O)CN(CC(=O)O)C(=O)NC` came in with a TGI of over 100 µM.
Same read-out and setting: for `CCn1ncc2c(=O)n3ncn(-c4ccc(Br)cc4)c3nc21` the value was over 100 µM; for `CCOC(=O)/C=C/CCC(C)(C)COC(C)=O`, over 10 µM.
Take `COC(=O)CC[C@]12C[C@]13CC[C@]1(C)C4C(C)C[C@]5(CC(C)C(=O)O5)OC4CC1(C)C3CCC2C(C)(C)O` (stereo not given in full): the TGI is over 100 µM.
On the same count and under the same terms, as for `CC1(C)C=C(/C=C2/N(S(=O)(=O)C(F)(F)F)C(/C=C3/N(S(=O)(=O)C(F)(F)F)C(C)(C#N)CC3(C)C)=CC2(C)C)N=C1/C=C1/CC(C)(C)C(=O)N1` (stereo not given), the figure is over 100 µM.
On the same count and under the same terms, for `CC(=O)Oc1ccn2nc(C)c(Br)c2c1` the value was over 100 µM; for `NC(=O)c1ccc[n+](C2=C([O-])c3ccccc3C(=O)/C2=N\S(=O)(=O)c2ccccc2)c1`, 29.5 µM.
Take `O=C1c2cc3c(cc2-c2c1c1ccc(Cl)cc1c(=O)n2CCCn1ccnc1)OCO3`: the GI50 was 0.0554 µM and the TGI was over 100 µM.
The compound `CC(=O)/C(=N\Nc1ccc(Cl)cc1)C(C)=Nc1ccc(C)cc1` returned a TGI of over 100 µM.
On the same count and under the same terms, for `COc1ccc(-c2cc(=O)c3c(O)c(OC)c(OC)c(OC)c3o2)cc1` the value was over 100 µM.
As for `O=c1c2c3c(sc2nc2n1N=C(c1ccc(Br)cc1)CS2)CCCC3`, the TGI was over 100 µM.
On the same count and under the same terms, for `CC1=NOC(=O)/C1=C/c1ccc2c(c1)OCO2` the value was over 100 µM; for `O=C([C@H](O)[C@@H](O)c1cccc(Cl)c1)C12CC3CC(CC(C3)C1)C2`, 5.73 µM.
Take `CO/N=C(\COc1ccc2oc(-c3ccccc3)cc(=O)c2c1)c1ccc(F)cc1`: the GI50 is 26.1 µM and the TGI was 58.4 µM.
In turn, `C=C1[C@@H]2CCC3[C@]4(C)C(CC[C@@]5(C)C(=O)O[C@H](O)[C@@H]45)[C@H](O)[C@]3(C2)[C@H]1OC1OC(CO)C(O)C(O)C1O` (stereo not given in full) returned a TGI of over 50 µM.
In turn, `CN(C)CCCNC(=O)N/N=C/c1ccccc1` registered a TGI of over 100 µM.
For the compound `COc1ccc2nc3cc(Cl)ccc3c(Nc3cc(CN4CCCC4)c(O)c(CN4CCCC4)c3)c2n1`, the GI50 is 2.13 µM and the TGI stood at 6.09 µM.
`O=C1c2cc3c(cc2CC12Cc1ccc4c(c1C2=O)CCC4)CCC3` (stereo not given) had a TGI of over 100 µM.
`C=C1C(OC(C)=O)CC(OC(C)=O)C2(C)C(OC(C)=O)C(OC(C)=O)C3=C(C)C(OC(=O)/C=C/c4ccccc4)CC(C(OC(C)=O)C12)C3(C)C` (stereo not given) displayed a TGI of over 100 µM.
Consider `C1=CCCC=CCC1.C[PH+](C)C.C[PH+](C)C.C[PH+](C)C.[Cl-].[Ir]`, for which the GI50 is over 100 µM and the TGI was over 100 µM.
`O=c1c2ccc(Cl)cc2oc2c(CNc3ccc(S(=O)(=O)Nc4ncccn4)cc3)cccc12` yielded a TGI of over 100 µM.
Compound `COC(=O)C1CCc2nnc(-c3ccccc3)n21` (stereo not given) had a TGI of over 100 µM.
The same measure, in the same setting: as for `CCOC(=O)N1CCN(c2c(N)nc(C)[nH]c2=O)CC1`, the figure is over 100 µM.
As for `C[N+](C)=c1ccc2nc3c(cc(NCCCNc4cc5oc6cc(=[N+](C)C)ccc-6nc5c5ccccc45)c4ccccc43)oc-2c1`, the GI50 is 2.06 µM and the TGI was determined as 6.53 µM.
The compound `Cn1c(=O)cc(NNc2ccc(Cl)c(Cl)c2)[nH]c1=O` came in with a TGI of 69 µM.
Turning to `CNC(=O)c1cncc(/C=C/c2ccccc2Cl)c1`, the GI50 is over 25 µM and the concentration for total growth inhibition (TGI) is over 25 µM.
`CC(=O)Oc1ccc2c(c1)C(=O)c1nc(C)c(C)nc1C2=O` gave a TGI of over 100 µM.
Still for that read-out and setting: as for `CN(C)CCNCCCNc1c2ccccc2nc2cccc([N+](=O)[O-])c12`, the figure is 0.128 µM.
As to `C/C(=C\CSCC(N)C(=O)O)CC/C=C(\C)CNc1ccccc1` (stereo not given), the TGI was over 100 µM.
Still for that read-out and setting: as for `NC(=O)c1ccc(Cl)c([N+](=O)[O-])c1`, the figure is over 100 µM.
Same read-out and setting: as for `COc1ccc(C2c3cc4c(cc3OC(Nc3ccccc3)C2C)OCO4)cc1` (stereo not given), the figure is over 100 µM; as for `CC(C)(C)/C(O)=C\c1nc2cc(F)c(F)cc2[nH]c1=O`, over 100 µM.
For the compound `CCN(Cc1c(F)cccc1Cl)c1ccc(CO)c(Cl)c1`, the GI50 was 2.28 µM and the TGI is 12.5 µM.
As to `CC(C)(C)OC(=O)N[C@@H](Cc1ccccc1)C(=O)N(Cc1ccccc1)C1(C(=O)NCc2ccccc2)CCN(Cc2ccccc2)CC1`, the GI50 was 9.37 µM and the TGI is over 100 µM.

These data come from PubChem BioAssay (NCI).
